Laboratory results taken from article PMC4336329 (PLoS ONE, 2015).
About 14,000 (4.5%) of roughly 310,000 compounds showed an effect of 50% or more. Effects have a minus sign here. This is one part of the list.

These compounds were tested against human ether-à-go-go-related gene (hERG) potassium channel (human, UniProt Q12809) (assay: primary screen, population patch clamp on CHO cells stably expressing hERG).
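Note: peak tail current of the secondary pulse compared with the same well before compound.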

Sequence of human ether-à-go-go-related gene (hERG) potassium channel (Q12809 whole entry, looked up): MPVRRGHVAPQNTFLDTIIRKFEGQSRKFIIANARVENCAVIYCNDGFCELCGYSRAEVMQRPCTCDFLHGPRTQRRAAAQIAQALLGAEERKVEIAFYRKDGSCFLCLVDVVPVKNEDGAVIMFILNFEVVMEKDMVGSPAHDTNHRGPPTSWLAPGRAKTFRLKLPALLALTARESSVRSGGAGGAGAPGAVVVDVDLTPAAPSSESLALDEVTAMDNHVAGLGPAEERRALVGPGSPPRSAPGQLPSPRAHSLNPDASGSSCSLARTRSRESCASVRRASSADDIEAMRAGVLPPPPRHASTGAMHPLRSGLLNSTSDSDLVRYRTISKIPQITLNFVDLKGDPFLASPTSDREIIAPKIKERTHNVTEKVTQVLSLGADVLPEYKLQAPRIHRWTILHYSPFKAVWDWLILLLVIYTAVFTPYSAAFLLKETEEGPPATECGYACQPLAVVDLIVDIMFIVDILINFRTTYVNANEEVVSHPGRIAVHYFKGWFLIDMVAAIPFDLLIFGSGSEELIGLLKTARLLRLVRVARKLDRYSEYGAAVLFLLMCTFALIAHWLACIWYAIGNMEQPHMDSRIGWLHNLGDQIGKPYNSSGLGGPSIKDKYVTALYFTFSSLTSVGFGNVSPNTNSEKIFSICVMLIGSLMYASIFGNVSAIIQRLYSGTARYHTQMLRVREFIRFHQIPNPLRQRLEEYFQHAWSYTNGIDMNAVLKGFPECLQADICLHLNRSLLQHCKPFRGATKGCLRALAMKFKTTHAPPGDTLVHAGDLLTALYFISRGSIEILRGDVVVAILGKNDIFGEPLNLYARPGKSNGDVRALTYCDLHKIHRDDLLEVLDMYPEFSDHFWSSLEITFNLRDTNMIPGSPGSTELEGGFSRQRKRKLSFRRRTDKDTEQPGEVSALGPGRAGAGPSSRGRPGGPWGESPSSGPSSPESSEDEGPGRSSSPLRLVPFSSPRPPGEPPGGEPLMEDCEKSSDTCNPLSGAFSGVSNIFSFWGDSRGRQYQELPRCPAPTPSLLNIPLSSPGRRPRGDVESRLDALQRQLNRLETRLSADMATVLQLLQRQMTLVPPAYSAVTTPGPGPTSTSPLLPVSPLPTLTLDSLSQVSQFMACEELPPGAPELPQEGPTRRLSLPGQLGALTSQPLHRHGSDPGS

| SMILES | hERG current change (%, negative = inhibition) at 10uM [%] |
| --- | --- |
| CN(CCc1ccccn1)C(=O)CC1C(=O)NCCN1Cc1ccccc1C(F)(F)F (centres unmarked) | -0.462 |
| O=C1CSC(=NC(=O)c2ccccc2)N1 | -4.42 |
| Cc1cc(C)n2nc(CNS(=O)(=O)c3cccc([N+](=O)[O-])c3)nc2n1 | 21.2 |
| Br.COc1cccc(C(=O)Cn2c(NCCCO)nc3ccccc32)c1 | 10.1 |
| COC(=O)c1ccc(CSc2nc3c(c(=O)n2-c2ccc(F)cc2)SCC3)o1 | -5.5 |
| O=C(COc1ccc(Br)cc1)NNC(=S)NCc1ccccc1 | 8.46 |
| CN(CCO)c1cc(NCCCN2CCC(Cc3ccccc3)CC2)c2nonc2c1[N+](=O)[O-] | -38 |
| COc1cc(C(=O)NCCCn2ccnc2)cc(OC)c1OC.Cl | 20.6 |
| Cl.O=C(CNCC1CCCO1)Nc1ccccc1-n1cccc1 (centres unmarked) | -3.97 |
| CCCCOC(=O)Nc1nnc(CCc2ccccc2)s1 | 12 |
| O=C(O)c1cccn1Cc1ccccc1F | 3.84 |
| Cc1nc(CSc2n[nH]c(=O)n2-c2ccccc2)cs1 | 9.9 |
| CCOC(=O)C1(Cc2ccc(OC)cc2)CCN(C(=O)CN2CCOC2=O)CC1 | 24.2 |
| CCC(=O)Nc1ccc2oc(-c3ccccc3Br)nc2c1 | 8.17 |
| COc1ccc(NC(=O)c2cc3c(=O)n(C)c4ccccc4c3s2)cc1OC | 13.5 |
| Cc1ccccc1N(CC(=O)N1CCOCC1)S(C)(=O)=O | 27.9 |
| O=C(O)C1C2C=CC(O2)C1C(=O)NC1CCCc2ccccc21 (centres unmarked) | 9.61 |
| Cc1[nH]c2ccccc2c1/C=C/C(=O)c1ccncc1 | 11.4 |
| O=C(O)CN1C(=O)/C(=C\c2cccc(OCc3ccc(F)cc3)c2)SC1=S | 14.9 |
| O=C(NCc1ccccc1)/C(=C/c1ccco1)NC(=O)c1ccco1 | -18.1 |
| O=C(COC(=O)COc1cccc(C(F)(F)F)c1)NC1CCS(=O)(=O)C1 (centres unmarked) | 7.36 |
| O=C(C[n+]1ccc2ccccc2c1)c1cccc2ccccc12.[Br-] | -72.8 |
| CCOC(=O)Cn1c(-c2nonc2NC(=O)c2ccccc2F)nc2ccccc21 | 5.56 |

| SMILES | hERG current change (%, negative = inhibition) at 10uM [%] |
| --- | --- |
| COc1ccc(N2CCN(C3CCCN(C(=O)C4=C(C)OCCO4)C3)CC2)cc1 (centres unmarked) | -11.7 |
| C=CCn1c(SCC(=O)/C(C#N)=C(\C)N)nc2sc(CC)cc2c1=O | 13.3 |
| CCN(C(=O)COC(=O)/C=C/c1ccccc1)C1CCCCC1 | -24.2 |
| Cc1ccc(-n2nc3c(=O)n(CC(=O)NCCc4ccco4)nc(C)c3c2C)cc1 | -6.64 |
| Cc1ccc(S(=O)(=O)CC(=O)c2ccc([N+](=O)[O-])cc2)cc1 | -14.5 |
| Cc1cccc(-c2ccc(C=Nc3c(C)n(C)n(-c4ccccc4)c3=O)o2)c1 | -12.7 |
| CN1C(=O)[C@@H]2[C@@H]3C[C@@H]([C@H]4ON=C(c5ccccc5OCC#N)[C@@H]34)[C@@H]2C1=O | -5.89 |
| Cc1ccc(S(=O)(=O)NCCC(=O)Nc2nnc(C3CC3)s2)cc1C | 9.34 |
| COc1ccc(Cc2nc3ccc(C(=O)N4CCN(C)C(C)C4)cc3o2)cc1OC (centres unmarked) | -1.59 |
| O=S(=O)(c1cnccc1N1CCN(CCO)CC1)N1CCCCC1 | 3.21 |
| Cc1cccc(N(C(=O)Cn2nnc3ccccc32)C(C(=O)NCc2ccco2)c2ccncc2)c1 (centres unmarked) | 7.4 |
| O=C(Nc1c(-c2ccccc2)nc2ncccn12)c1cc2ccccc2oc1=O | -12.2 |
| O=C(C1Cc2ccccc2CN1C(=O)c1ccco1)N1CCN(c2ccccc2)CC1 (centres unmarked) | -44.2 |
| COc1cc(C(C(=O)NC(C)(C)C)N(C(=O)CNC(=O)c2cccs2)c2cccnc2)cc(OC)c1OC (centres unmarked) | 17.7 |
| CCCc1nnc(SCC(=O)N2CCCC2)n1Cc1ccco1 | 1.2 |
| COc1cccc(-n2ccn(CC(=O)NCCc3ccccc3)c(=O)c2=O)c1 | 18.5 |
| CC1CCCC(C)N1C(=O)C1CC(c2ccc(F)cc2)=NO1 (centres unmarked) | -7.79 |
| O=C(Nc1ccc(CN2CCOCC2)cc1)c1cccs1 | -8.45 |
| O=C(NCCN1CCOCC1)NC1(C(F)(F)F)Oc2ccc(Cl)cc2O1 (centres unmarked) | -1.06 |
| CCSc1nnc(NC(=O)c2cccs2)s1 | -8.23 |
| COc1cccc(NC(=O)CN(c2ccc(C)cc2)S(=O)(=O)c2c(C)nn(C)c2C)c1 | -17.8 |
| Cc1sc(NC(=O)CSc2nnc(C)c(=O)[nH]2)c(C#N)c1C | 16.9 |
| CC(C)COC(=O)c1cc(-c2ccc(/C=N/n3cnnc3)o2)ccc1Cl | -6.12 |

| SMILES | hERG current change (%, negative = inhibition) at 10uM [%] |
| --- | --- |
| Cc1cc(C)c(NC(=O)c2cc(=O)c3ccccc3o2)c(C)c1 | -0.368 |
| Cc1cc2ncn(CCCCOc3ccccc3)c2cc1C | -6.68 |
| Cc1ccc(C(=O)C(OC(=O)CCC(=O)Nc2cccc(C)c2)c2ccccc2)cc1 (centres unmarked) | 0.916 |
| O=C1CCC(=O)N1c1ccc(-c2nc3sc4c(c3c(=O)o2)CCC4)cc1 | -1.7 |
| Cc1ccc(C)c(SCC(=O)NCC(c2ccco2)N2CCCCC2)c1 (centres unmarked) | -9.42 |
| Cc1ccnc(NC(=O)CNC(=O)c2ccc3c(c2)OCO3)c1 | 9.1 |
| Cc1ccc(NC(=O)c2cc(N3C(=O)C=CC3=O)ccc2N2CCOCC2)cc1Cl | 14.2 |
| COc1cccc(/C=C2\SC(=O)N(CC(=O)NCCCn3ccnc3)C2=O)c1 | -31.6 |
| Cc1ccc(CC(=O)Nc2nccs2)cc1C | 14.3 |
| O=C(NCC(c1ccco1)N1CCCCC1)c1ccc(NS(=O)(=O)c2ccc(F)cc2)cc1 (centres unmarked) | -13 |
| COc1cccc(CC(NC(C)=O)C(=O)NC2CCN(c3nnnn3-c3ccccc3)CC2)c1OC (centres unmarked) | 31.9 |
| COC(=O)CCCCCC(CCC(=O)OC)NC(C)=O (centres unmarked) | 10.6 |
| COc1ccc(Br)cc1/C=C1\Oc2ccccc2NC1=O | 10.1 |
| CCOc1nc2ccccc2cc1C=O | -5.31 |
| Cc1ccc(N(C(=O)Cn2nnc3ccccc32)C(C(=O)NCc2ccco2)c2cccnc2)cc1 (centres unmarked) | -6.28 |
| Nc1ccccc1SCC(=O)Nc1ccc2c(c1)OCO2 | 6.68 |
| CC1(C)O[C@@H]2[C@H](O1)[C@@H](CO)O[C@H]2n1ccc(=O)[nH]c1=O | 17.8 |
| NC(=O)C1CCN(C(=O)/C=C/c2ccco2)CC1 | 16.8 |
| Cc1ccccc1C(O)c1cccnc1 (centres unmarked) | 22.9 |
| COc1ccc(CNC(=O)c2ccc(N(C)S(=O)(=O)c3ccc(C)cc3)cc2)cc1 | -16.8 |
| Cc1ccc(N(C(=O)CS(=O)CC(=O)Nc2ccc(F)cc2)C(C(=O)NC2CCCCC2)c2ccco2)cc1 (centres unmarked) | 3.77 |
| COC(=O)c1ccc(-c2nc(O)c(C)s2)cc1 | 16 |
| CN(C)c1nc(OCCNC(=O)COc2ccc(Cl)cc2Cl)nc(N2CCOCC2)n1 | -6.89 |

| SMILES | hERG current change (%, negative = inhibition) at 10uM [%] |
| --- | --- |
| COC(=O)C(NC=O)C(O)(Cc1ccccc1)C(F)(F)F (centres unmarked) | 0.47 |
| O=C(N1CCCC1)C12CC3CCC(CC(C3)C1)C2 | 15.6 |
| CCOc1ccc(NC(=O)CCCn2c(=S)[nH]c3ccsc3c2=O)cc1 | 1.72 |
| O=C(Cn1cncn1)N/N=C/c1cccc(Cl)c1 | 16.3 |
| COC(=O)C1=C(c2ccc(F)cc2OCc2ccccc2)C[C@@H]2CC[C@H]1N2C(=O)NCCNC(C)=O | 0.67 |
| Cc1cc(C)n(/N=C/c2ccc(C(C)C)cc2)c(=O)c1C#N | 1.93 |
| CN(C)S(=O)(=O)Oc1cccc(C(=O)Nc2cccc(Cl)c2)c1 | -15.5 |
| CSc1ncccc1C(=O)OCc1c(F)cccc1Cl | -9.65 |
| Cc1ccc(-c2cc(C(=O)N3CCN(C(=O)c4ccco4)CC3)[nH]n2)cc1C | 5.83 |
| CN(Cc1ccccc1)C(=O)COc1ccccc1Cl | -0.368 |
| O=C(Nc1ccc(S(=O)(=O)Nc2ncccn2)cc1)C1=COCCO1 | -11.7 |
| CCCC(=O)Nc1cccc(NC(=S)NC(=O)C(C)Oc2ccc(Cl)cc2Cl)c1 (centres unmarked) | -3.45 |
| CCC(=O)NC(=S)Nc1ccc(NC(=O)c2ccc(C)c([N+](=O)[O-])c2)cc1 | 12.8 |
| C/C(=N\NC(N)=O)c1ccccc1Cl | -2.39 |
| Cc1nnc(SCc2ccccn2)n(N)c1=O | 6.25 |
| CCOC(=O)N1CCC(c2[nH][nH]c(=O)c2C)CC1 | 16.2 |
| O=C(CN(C(=O)Cn1nnc(-c2cccs2)n1)c1ccc2c(c1)OCCO2)NCc1ccccc1 | -9.67 |
| C1COCCNCCOCCOCCN1 | -1.7 |
| CCOC(=O)c1nnn(-c2nonc2N)c1CNc1ccccc1 | -16.2 |
| O=C(NCc1ccc2c(c1)OCO2)c1nn(-c2ccccc2)c(=O)c2ccccc12 | -35.1 |
